From PubChem BioAssay AID1345083 (National Center for Advancing Translational Sciences (NCATS), 2018)
Among all 94,000 compounds or so, about 6,200 (6.6%) were called active. Inconclusive results, whose numbers are uncertain, are shown with a selection of clear calls. Calls come from the whole dose curve; as a rule, active = well fitted inhibition curve with a large enough effect; inconclusive = small, poorly fitted or top-dose-only effect; inactive = flat fitted curve, though single readings scatter. Potencies of inconclusive entries are doubtful fits and often do not repeat.

Assay: Cytotoxic Profiling in HEK 293 Cell Line of Diverse Libraries Using Quantitative High-Throughput Screening; note: nearly all actives have a fitted effect of over 60% in size
Details: HEK 293 viability, ATP luminescence (CellTiter-Glo), 48-72 h; activity change, negative = cytotoxicity: at 115 µM (top of the series) unless noted; series mostly up to 115 µM
Method in brief: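 250 HEK 293 cells/well; compound by pintool; incubated 48 or 72 hr at 37 degree Celsius; CellTiter-Glo added, 10 min RT, luminescence imaged.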
% is set by controls: 0 for no effect and ±100 for the full control effect; potency is the fitted concentration of half-maximal effect; tags give direction and shape of the fitted curve.

SMILES | activity change, negative = cytotoxicity | Potency | outcome
CN(Cc1ccccc1)Cc1cn([C@H]2CO[C@H]3[C@@H]2OC[C@@H]3NS(=O)(=O)c2cccc3cccnc23)nn1 | inactive: -17.1% | – | –
COc1cc(NC(=O)CCN2CCCCCC2=O)ccc1NC(=O)C(C)(C)C | inactive: -0.236% | – | –
CCOCCCNc1ncnc2c1CN(C1CCCCC1)C(=O)CN2C | inactive: -11.2% | – | –
COc1cc(F)ccc1-c1nc(-c2c(C)noc2C)cc2[nH]c(C)cc12 | – | inconclusive: 56.2 µM [inhibitor, partial curve, poor fit] | –
O=C(NC1CCCCC1)c1cc(-c2cc(Cl)cc(Cl)c2)c2nncn2n1 | inactive: -17.8% | – | –
CCOC(=O)C1CCN(C(=O)c2ccc(-c3ccc(N4CCCCCC4)nc3)cc2)CC1 | – | inconclusive: 50.1 µM [inhibitor, partial curve, poor fit] | –
O=C(Cc1ccccc1F)NCCc1noc(C2CC2)n1 | inactive: -2.77% | – | –
CCc1nc2c(c(-c3ccc(O)cc3)n1)CCN(Cc1cccc(C(F)(F)F)c1)CC2 | – | active: 44.7 µM | –
CCCn1cc(S(=O)(=O)N2C[C@H](C3CC3)[C@@H](N)C2)cn1 | inactive: -19.8% | – | –
CCC(=O)N1Cc2ccccc2CC2(CCCN(C)C2)C1 (centres undefined) | – | active: 79.4 µM | –
CCc1cccc2c(C(CC(=O)NCC(C)C)c3cccc(OC)c3)c[nH]c12 (centres undefined) | – | inconclusive: 28.2 µM [inhibitor, partial curve, poor fit] | –
CC1CCCN(c2ncnc3c2CN(C2CCNCC2)C(=O)CN3C)C1 (centres undefined) | inactive: -8.18% | – | –
COc1cc(OC)cc(C(=O)Nc2ccc3c(c2)CN(Cc2ccc4c(c2)OCO4)C(=O)C(C)O3)c1 (centres undefined) | – | inconclusive: 20 µM [inhibitor, full curve] | –
CCCN1CC(Oc2ccc(-c3noc(-c4cccnc4)n3)cc2)C1 | – | inconclusive: 35.5 µM [inhibitor, partial curve, poor fit] | –
Cc1cc(Cl)ccc1-c1ccc(CNC2CN(C(=O)OC(C)(C)C)C2)cc1 | – | inconclusive: 44.7 µM [inhibitor, partial curve, poor fit] | –
O=C(NC1CCCCC1)C1CCc2sc(C(=O)N3CCCCC3)cc2C1 (centres undefined) | – | inconclusive: 50.1 µM [inhibitor, partial curve, poor fit] | –
O=C1CCSc2ccc(S(=O)(=O)N[C@H]3C[C@@H]4OCC[C@H]34)cc2N1 | inactive: -16.9% | – | –
COc1ccc(-c2cc(N3CCC(NC(=O)c4ccc(C)c(F)c4)CC3)n[nH]2)cc1 | – | inconclusive: 44.7 µM [inhibitor, partial curve, poor fit] | –
CN(C)C[C@@H]1CN(c2ccccn2)C[C@H]1NC(=O)NC1CCCCC1 | – | inconclusive: 89.1 µM [inhibitor, single point] | –
COCCOCc1nc(C2CCN(C(=O)Nc3ccccc3F)CC2)no1 | – | – | inactive
CCC(CC)C(=O)N1CC(C(=O)NCCc2ccncc2)C2(CCOCC2)C1 (centres undefined) | inactive: -13.9% | – | –
CCc1ccccc1NC(=O)Cn1c(C)cc2nc3n(c(=O)c21)CCCCC3 | – | inconclusive: 28.2 µM [inhibitor, full curve] | –

SMILES | activity change, negative = cytotoxicity | Potency | outcome
O=C(Nc1cccc(-n2cccn2)c1)C1CCCN(C2CCN(Cc3ccco3)CC2)C1 (centres undefined) | inactive: -1.69% | – | –
CCc1noc(-c2cn(C3CCN(C(=O)c4cc(Cl)ccc4F)CC3)nn2)n1 | – | inconclusive: 28.2 µM [inhibitor, partial curve] | –
COC(=O)[C@@H]1C[C@H](NC(=O)CSC23CC4CC(CC(C4)C2)C3)CN1C | – | inconclusive: 56.2 µM [inhibitor, partial curve, poor fit] | –
Cc1cc2nc3n(c(=O)c2n1CC(=O)Nc1ccc2c(c1)OCCO2)CCCCC3 | – | inconclusive: 89.1 µM [inhibitor, single point] | –
Cc1cnc(CC2CCCN(Cc3ccc(C#N)cc3)C2)n1C(C)C (centres undefined) | – | inconclusive: 31.6 µM [inhibitor, partial curve, poor fit] | –
CCc1cccc(NC(=O)Cn2c(COc3ccc(OC)cc3)nc(C)c(CCO)c2=O)c1 | – | inconclusive: 89.1 µM [inhibitor, single point] | –
O=C(NC1CCN(c2nc3ncccc3o2)CC1)c1ccc(C(F)(F)F)cc1 | – | inconclusive: 39.8 µM [inhibitor, partial curve] | –
O=c1n(-c2ccc(Cl)cc2)nc2n1CCN(Cc1ccc(F)cc1)C2 | – | active: 39.8 µM | –
Cc1nnc2ccc(N3CCC(NC(=O)Nc4ccccc4F)C3)nn12 (centres undefined) | – | inconclusive: 56.2 µM [inhibitor, partial curve, poor fit] | –
COCc1nc(C2CC(NC(=O)C(=O)c3ccco3)C2)cc(=O)[nH]1 (centres undefined) | inactive: -3.11% | – | –
CC(NC(=O)Cc1cccn1-c1cccc(Cl)c1)c1ccccn1 (centres undefined) | – | inconclusive: 70.8 µM [inhibitor, partial curve] | –
Cc1ncc2n1C(=O)N(C1CCN(C(=O)c3ccccc3)CC1)C2 | – | inconclusive: 35.5 µM [inhibitor, partial curve, poor fit] | –
O=C(NCCCc1ccccc1)c1n[nH]c2c1CN(C(=O)c1cc(F)ccc1F)CC2 | – | inconclusive: 56.2 µM [inhibitor, partial curve, poor fit] | –
CCCN1C(=O)Cc2ccccc2C1C(=O)NCc1ccc(F)cc1Cl (centres undefined) | – | inconclusive: 89.1 µM [inhibitor, single point] | –
CC(NC(=O)c1ccc(-c2nnc3ccc(NC(=O)C4CCC4)cn23)cc1)c1cccs1 (centres undefined) | – | inconclusive: 50.1 µM [inhibitor, partial curve, poor fit] | –
CCC(C)Cc1nccc(C2(c3ccccc3Cl)CCNCC2)n1 (centres undefined) | – | active: 25.1 µM | –
O=C1CCN(S(=O)(=O)c2ccccc2)CCCN(C(=O)CCc2nc3ccccc3[nH]2)CCN1 | inactive: -11.4% | – | –
COc1cccc2ccc(-c3nccn3CC3(CO)CCOCC3)nc12 | – | – | inactive
O=C(CC[C@H]1NC(=O)c2ccccc2NC1=O)NCCn1cnc2ccccc21 | inactive: 8.53% | – | –
C#CCNC(=O)C1CCCN1Cc1ccc(-c2cccc(OC)c2)cc1 (centres undefined) | – | inconclusive: 50.1 µM [inhibitor, partial curve, poor fit] | –
Cc1cccc(-c2cccc(CN3CCC(NC(=O)c4cccc(Cl)c4)CC3)c2)c1 | – | active: 28.2 µM | –
COc1ccc(CN2CCCCCNC(=O)CC2c2ccccc2)cc1Cn1ccnc1 (centres undefined) | – | active: 35.5 µM | –
